According to paper PMC6282700 (Cell reports, 2018):

Molecular target: actin capping protein (CP), mouse α1/β2 heterodimer (mouse, UniProt P47753; P47757-2)
Assay: fluorescence polarisation

Kd: 0.47 ± 0.13 nM
B1: CBR71 fragment of human CARMIL1a ([…]) (domain or fragment)
chain: not shown
